# Measured values: PubChem BioAssay AID938 (National Center for Advancing Translational Sciences (NCATS), 2007)
# Values joined by “and” are separate entries in the source; they are usually repeats but may differ in a detail not shown here. Equal entries are not always repeated. Screen size: about 73,000 compounds; about 1,800 (2.5%) were called active. Inconclusive results, whose numbers are uncertain, are shown with a selection of clear calls. Calls follow the shape of the dose curve; as a rule, active = well fitted activation curve with a large enough effect; inconclusive = small, poorly fitted or top-dose-only effect; inactive = no such curve, though single readings can be large or run the other way. Potencies of inconclusive entries are left out as doubtful fits.
# Experiment: qHTS Assay for Agonists of the Thyroid Stimulating Hormone Receptor: Activators of Intracellular cAMP Concentrations in Parental HEK 293; also: nearly all actives have a fitted effect of over 55% in size; as to activation: % of control where 0% means no effect
# Conditions: parental HEK293 CNG cAMP sensor, membrane potential fluorescence; activation: at 57.1 µM (top of the series) unless noted
# Summary of the method: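 Parental HEK 293 cells stably expressing a cAMP-gated CNG channel were loaded with membrane potential dye containing 100 uM RO 20-1724 for 60 min. Compound added for 30 min; depolarization read as fluorescence intensity at 590 nm.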
# Potency is read from the fitted curve at half-maximal effect; tags tell the direction and shape of the fitted curve.
SMILES,Potency,activation
CCOC(=O)Cc1csc(NC(=O)c2ccc3c(c2)OCO3)n1,inactive,
Cc1ccc(C(=O)COC(=O)c2ccc(Br)o2)cc1C,"inconclusive [activator, single point]",
COC(=O)c1ccc(C2NC(=O)NC(C)=C2C(=O)N(C)C)cc1 (configuration not stated),"inconclusive [activator, single point]",
O=C(O)c1ccc(F)c(S(=O)(=O)Nc2cccc(F)c2)c1,inactive,
O=C(Nc1cnc2sccn2c1=O)c1ccccc1Cl,"inconclusive [activator, single point]",
COC(=O)c1ccccc1NC(=O)C1CCCN(c2nnc(-n3cccc3)s2)C1 (configuration not stated),"inconclusive [activator, partial curve]",
COc1cc(C(Nc2ccccn2)c2ccc3ccc(C)nc3c2O)cc(OC)c1O (configuration not stated),inactive,
COC(=O)c1ccccc1NC(=O)c1ccc(F)cc1,"inconclusive [activator, partial curve]",
O=c1sc2ccccc2n1COc1ccccc1,active: 25.1 µM,
CC(C)C[C@H](NC(=O)OC(C)(C)C)c1nnc(SCc2cccc(F)c2)o1,"inconclusive [activator, single point]",
COC(=O)C1=C(NC(=O)c2cccc(OC)c2)CCS1,"inconclusive [activator, partial curve, poor fit]",
O=C(Cc1ccccc1)N1CCC(c2nc3ccccc3[nH]2)CC1,inactive,
COc1ccc(CCNS(=O)(=O)c2cn(C)c(=O)n(C)c2=O)cc1OC,"inconclusive [activator, full curve, poor fit]",
CC(C)(C)NC(=O)C(c1ccc(F)cc1)N(Cc1ccco1)C(=O)c1csnn1 (configuration not stated),inactive,
C[C@H](O/N=C1/[C@H]2O[C@@H]2[C@@H](O)[C@H]2[C@H]1CCn1c(=O)n(-c3ccccc3)c(=O)n12)c1cn([C@H](CO)Cc2ccccc2)nn1,,inactive: 1.44% [at 11.4 µM] and inactive: -3.44% [at 11.4 µM]
COc1ccc(CNCC(O)COCc2cccs2)cc1 (configuration not stated),"inconclusive [activator, single point]",
c1cnc(N2CCN(c3ncnc4c3oc3ccccc34)CC2)nc1,inactive,
C#CCN1C(C)=C(C(=O)OC)[C@@H](c2cccc([N+](=O)[O-])c2)C(C(=O)OCC)=C1C,inactive,
CCOc1ccccc1NC(=O)Cn1nnc(C(=O)NCc2ccco2)c1N,"inconclusive [activator, single point]",
O=S(=O)(c1ccc(Oc2ccc(Br)cc2F)nc1)N1CCCCC1,active: 25.1 µM,
O=c1c2ccccc2nc(SCc2cccc(F)c2)n1Cc1ccco1,"inconclusive [activator, single point]",
COc1ccc(Cn2cccc(NC(=O)Nc3ccc(C#N)cc3)c2=O)cc1,"inconclusive [activator, partial curve]",
CC1CCN(C(=O)CN(C2CCCCC2)S(C)(=O)=O)CC1,"inconclusive [activator, full curve]",
CN(c1ccccc1)C(c1ccc(F)cc1)c1nnnn1C1CCCC1 (configuration not stated),active: 12.6 µM,

SMILES,Potency,activation
c1ccc(N(c2ccccc2)c2nc(-n3ccnc3)nc(-n3ccnc3)n2)cc1,active: 25.1 µM,
c1coc(CNc2ncnc3sc4c(c23)CCCCC4)c1,active: 25.1 µM,
Cc1cc(C)nc(NS(=O)(=O)c2ccccc2)n1,"inconclusive [activator, single point]",
Cc1oc(-c2ccccc2F)nc1CS(=O)(=O)CC(=O)N1CCN(Cc2ccccc2)CC1,inactive,
N#Cc1nc(Cc2cccc3ccccc23)oc1N1CCOCC1,"inconclusive [activator, single point]",
O=c1c(-c2ccccc2)nc2cnc(N3CCOCC3)nc2n1CCc1ccccc1,inactive,
O=S(=O)(c1ccccc1)c1nc(-c2cccs2)oc1NCC1CCCO1 (configuration not stated),"inconclusive [activator, single point]",
CCC1CCCCN1C1Sc2ccc(C(=O)OC)cc2NC1=O (configuration not stated),"inconclusive [activator, single point]",
COc1cccc2sc(N3CCN(c4nc5ccccc5s4)CC3)nc12,"inconclusive [activator, full curve, poor fit]",
O=C(O)CC[C@@H](C(=O)O)N1C(=O)[C@@H]2[C@@H]3CC[C@H](C3)[C@@H]2C1=O,,inactive: -0.29% [at 11.4 µM]
Cc1ccc(-c2ccc(OCC(=O)N3CCOCC3)cc2)cc1,inactive,
Clc1ccc(OCCCc2nc(-c3cccnc3)no2)c(Cl)c1,active: 15.8 µM,
Cc1c(NC(=O)c2cccc(F)c2)c(=O)n(-c2ccccc2)n1C,"inconclusive [activator, single point]",
O=C(Nc1ccccc1F)c1ccncc1,inactive,
CC1CCN(C(=O)C2Cc3ccccc3CN2S(=O)(=O)c2ccc(F)cc2)CC1 (configuration not stated),active: 20 µM,
CCOC(=O)c1cn(CC(=O)Nc2ccc(C(C)C)cc2)nn1,"inconclusive [activator, single point]",
CCC(=O)N1CCN(c2ccccc2NC(=O)c2cccc(C)c2)CC1,"inconclusive [activator, partial curve]",
Cc1ccc(C(C(=O)NC(C)(C)C)N(CC2CCCO2)C(=O)Cn2nnc(-c3ccc(C)o3)n2)cc1 (configuration not stated),active: 25.1 µM,
Cc1nn(C)c(C)c1CN(C)C(=O)c1cc2nc(-c3ccco3)cc(C(F)(F)F)n2n1,"inconclusive [activator, full curve]",
CC[C@H](NC(=O)c1c(C)c(-c2ccccc2)nc2ccccc12)c1ccccc1,active: 25.1 µM and active: 15.8 µM,
COc1cc(OC)cc(C(=O)N2c3ccc(F)cc3CCC2C)c1 (configuration not stated),inactive,
CCCCCCCCCCCCOCC1CO1 (configuration not stated),inactive,
Cc1c(NC(=O)c2ccc(CN3CCc4ccccc4C3)cc2)c(=O)n(-c2ccccc2)n1C,"inconclusive [activator, partial curve]",
